Marks after values point to notes of the source that are not given here.
Columns and labels:
[1] = tested on: gastric cancer cell MGC-803; assay: MTT assay, proliferation of gastric cancer cell MGC-803; format: cell-based; conditions: 48 h
Description: (§1) The MTT assay was used to detect the inhibitory effect of the integrin blocker fusion protein obtained in Example 1 on the proliferation of various tumor cells, including melanoma cell B16F10, gastric cancer cell MGC-803, lung cancer cell A549, liver cancer cell Hep-G2, breast cancer cell MDA-MB-231, colon cancer cell HCT-116, human glioma U87, and cervical cancer cell Hela.
(§2) The tumor cells were cultured in a 5% CO2 incubator at 37° C. to a density of 90% or more, and collected by trypsinization. The cells were resuspended in the culture liquid and counted under a microscope. The cell concentration was adjusted to 3.0×10^4 cells/mL. The cell suspension was inoculated into a 96-well plate, 100 μL per well, and cultured overnight in a 5% CO2 incubator at 37° C. The fusion proteins I, II, and the positive drug Taxol were diluted with the culture liquid to respective predetermined concentrations. After the cells were fully adhered, each dilution was added to a 96-well plate, 100 μL per well, respectively. The integrin blocker fusion proteins I and II were added as an administration group, Taxol was used as a positive control group, and the culture liquid without any drug was used as a blank control group, and incubated in an 5% CO2 incubator at 37° C. for 48 hours. 20 μL of 5 mg/mL MTT was added to each well of a 96-well plate, and incubation was continued for 4 hours. The medium was aspirated and 100 μL of DMSO per well were added to dissolve. The absorbance was measured at 570 nm with a microplate reader with a reference wavelength of 630 nm, and the proliferation inhibition (PI) was calculated. The formula is as follows: […]
(§3) where Ntest is the OD value of the test group and Ncontrol is the OD value of the blank control group.
(§4) The test was repeated 5 times independently. The results obtained from the test were calculated as mean±SD, and statistical t-test was performed. P<0.05 was considered as significant difference, and P<0.01 was considered as an extremely significant difference.

lung cancer cell A549 = assay: MTT assay, proliferation of lung cancer cell A549; format: cell-based; conditions: 48 h
Description: as §1, §2, §3, §4

[2] = tested on: breast cancer cell MDA-MB-231; assay: MTT assay, proliferation of breast cancer cell MDA-MB-231; format: cell-based; conditions: 48 h
Description: as §1, §2, §3, §4

[3] = tested on: cervical cancer cell Hela; assay: MTT assay, proliferation of cervical cancer cell Hela; format: cell-based; conditions: 48 h
Description: as §1, §2, §3, §4

[4] = tested on: xylene-induced ear swelling in mice; assay: Xylene-induced ear swelling in mice; format: in vivo, Kunming mice; conditions: for PI (%): ear swelling, mice; for Swelling degree: mouse ear, 2 h after xylene
Description: 80 Kunming mice were divided into 8 groups with 10 mice for each group and numbered. A physiological saline group was used as a blank control group, an aspirin group (200 mg/kg) was used as a positive control group, and fusion proteins I and II at high, medium and low doses (128, 32, 8 mg/kg) was used as the experimental groups. Mice were administered once by injection every 5 days. The blank control group was given an equal volume of physiological saline. On the fifth day after the administration, 0.05 mL of xylene was applied to both sides of the right ears of the mice to induce inflammation, and the left ears were not applied and were normal ears. After 2 h, the mice were sacrificed by dislocation, and the ears were cut along the auricle. Ear pieces were taken with a puncher and weighed, and the swelling degree and swelling rate were calculated. Swelling degree=right ear piece weight-left ear piece weight, swelling rate=(swelling degree/left ear piece weight)×100%.

[5] = tested on: iris neovascularization in rabbits; assay: Iris neovascularization in rabbits; format: in vivo; conditions: rabbit NVI model; 128 μg intravitreal once every 7 days for 2 weeks; third week
[6] = tested on: retinal blood vessels in OIR mice; assay: Retinal blood vessels in OIR mice; format: in vivo, C57/B16 mice
[7] = tested on: neovascularization in premature rat retinopathy model; assay: Neovascularization in premature rat retinopathy model (oxygen-induced); format: in vivo; conditions: neonatal rat, 100 μg intravitreal day 7, day 14
tampon granuloma in rat = assay: Subacute inflammation of tampon granuloma in rat; conditions: granuloma, 64 mg/kg by injection every 5 days, day 7
[8] = 64 μg intravitreal day 13, evaluated day 17

B1: Protein II: Fc fusion protein Fc-IL4DM-HM3: IgG1-Fc, IL-4 and HM-3 joined by rigid (R) linker; SEQ ID NO: 2 (protein)
chain: [gap - human IgG1 Fc]AEAAAKEAAAKEAAAKEAAAKAHKCDITLQEIIKTLNSLTEQKTLCTELTVTDIFAASKNTTEKETFCRAATVLRQFYSHHEKDTRCLGATAQQFHRHKQLIRFLKRLDRNLWGLAGLNSCPVKEANQSTLENFLERLKTIMDEKDSKCSSAEAAAKEAAAKEAAAKEAAAKAIVRRADRAAVPGGGGRGD
[1]; 1 μg/mL
  A570 nm/A630 nm: 0.8821 ± 0.0306
  PI (%): 7.66%
[1]; 2 μg/mL
  A570 nm/A630 nm: 0.7852 ± 0.0125
  PI (%): 17.81%
[1]; 4 μg/mL
  A570 nm/A630 nm: 0.7049 ± 0.0323
  PI (%): 26.21%
[1]; 8 μg/mL
  A570 nm/A630 nm: 0.7421 ± 0.0460
  PI (%): 22.32%
[1]; 16 μg/mL
  A570 nm/A630 nm: 0.6342 ± 0.0302
  PI (%): 33.61%
[1]; 32 μg/mL
  A570 nm/A630 nm: 0.4523 ± 0.0271
  PI (%): 52.65%
[1]; 64 μg/mL
  A570 nm/A630 nm: 0.3796 ± 0.0133
  PI (%): 60.26%
[1]; 128 μg/mL
  A570 nm/A630 nm: 0.2276 ± 0.0511
  PI (%): 76.18%
[1]; 256 μg/mL
  A570 nm/A630 nm: 0.1112 ± 0.0115
  PI (%): 88.36%
Lung cancer cell A549; 1 μg/mL
  A570 nm/A630 nm: 0.6215 ± 0.0196
  PI (%): 7.86%
Lung cancer cell A549; 2 μg/mL
  A570 nm/A630 nm: 0.6051 ± 0.0125
  PI (%): 10.29%
Lung cancer cell A549; 4 μg/mL
  A570 nm/A630 nm: 0.5833 ± 0.0339
  PI (%): 13.52%
Lung cancer cell A549; 8 μg/mL
  A570 nm/A630 nm: 0.5516 ± 0.0313
  PI (%): 18.22%
Lung cancer cell A549; 16 μg/mL
  A570 nm/A630 nm: 0.5067 ± 0.0241
  PI (%): 24.88%
Lung cancer cell A549; 32 μg/mL
  A570 nm/A630 nm: 0.4698 ± 0.0178
  PI (%): 30.35%
Lung cancer cell A549; 64 μg/mL
  A570 nm/A630 nm: 0.4259 ± 0.0336
  PI (%): 36.86%
Lung cancer cell A549; 128 μg/mL
  A570 nm/A630 nm: 0.3509 ± 0.0116
  PI (%): 47.98%
Lung cancer cell A549; 256 μg/mL
  A570 nm/A630 nm: 0.2775 ± 0.0267
  PI (%): 58.86%
[2]; 1 μg/mL
  A570 nm/A630 nm: 0.8213 ± 0.0202
  PI (%): 4.84%
[2]; 2 μg/mL
  A570 nm/A630 nm: 0.8008 ± 0.0199
  PI (%): 7.22%
[2]; 4 μg/mL
  A570 nm/A630 nm: 0.7805 ± 0.0430
  PI (%): 9.57%
[2]; 8 μg/mL
  A570 nm/A630 nm: 0.7219 ± 0.0333
  PI (%): 16.36%
[2]; 16 μg/mL
  A570 nm/A630 nm: 0.6779 ± 0.0130
  PI (%): 21.46%
[2]; 32 μg/mL
  A570 nm/A630 nm: 0.6186 ± 0.0160
  PI (%): 28.33%
[2]; 64 μg/mL
  A570 nm/A630 nm: 0.5555 ± 0.0331
  PI (%): 35.70%
[2]; 128 μg/mL
  A570 nm/A630 nm: 0.5011 ± 0.0275
  PI (%): 41.94%
[2]; 256 μg/mL
  A570 nm/A630 nm: 0.4476 ± 0.0282
  PI (%): 48.06%
[3]; 1 μg/mL
  A570 nm/A630 nm: 1.1066 ± 0.0282
  PI (%): 13.47%
[3]; 2 μg/mL
  A570 nm/A630 nm: 1.0001 ± 0.0162
  PI (%): 21.72%
[3]; 4 μg/mL
  A570 nm/A630 nm: 0.9368 ± 0.0835
  PI (%): 26.74%
[3]; 8 μg/mL
  A570 nm/A630 nm: 0.9812 ± 0.0179
  PI (%): 23.27%
[3]; 16 μg/mL
  A570 nm/A630 nm: 0.8276 ± 0.0395
  PI (%): 35.28%
[3]; 32 μg/mL
  A570 nm/A630 nm: 0.7018 ± 0.0133
  PI (%): 45.12%
[3]; 64 μg/mL
  A570 nm/A630 nm: 0.5845 ± 0.0499
  PI (%): 54.29%
[3]; 128 μg/mL
  A570 nm/A630 nm: 0.3792 ± 0.0213
  PI (%): 70.35%
[3]; 256 μg/mL
  A570 nm/A630 nm: 0.1456 ± 0.0845
  PI (%): 88.61%
[4]; 8 mg/kg
  PI (%): 11.11%
  Swelling degree: 5.92 ± 0.15 mg
[4]; 32 mg/kg
  PI (%): 24.77%
  Swelling degree: 5.01 ± 0.84 mg
[4]; 128 mg/kg
  PI (%): 41.59%
  Swelling degree: 3.89 ± 0.39 mg
[5]
  iris neovascularization (optical and electron microscope): could inhibit neovascularization and regress the formed blood vessels
[6]; [8]
  Area (mm^2) of neovascular clusters: 0.153 ± 0.022* mm^2
  Reduce (%): 35.17%
[6]; 64 μg intravitreal day 13, evaluated day 17, listed as fusion protein II
  Reduce (%): 35.17%
[7]
  Nucleus number of vascular endothelial cells: 7.333 ± 1.263
[7]; listed as fusion protein II
  Nucleus number of vascular endothelial cells: 7.333±1.263
Tampon granuloma in rat
  PI (%): 17.39%

Source: US11542311B2, “Fusion protein, preparation method therefor and application thereof in preparing ophthalmic disease treatment, anti-inflammation and anti-tumor medicament” (JIANGSU RONGTAI BIOTECH CO., LTD., priority 2017, dated 2023)
